Laboratory results from the supplement of paper PMC10126150.
Values marked as one replicate rest on one cluster of the flow cell; about a third of the high ones do not repeat.

Tested on: ATP
Assay: switch fluorescence ratio, 500 uM ATP over buffer (Cy3 cluster intensity, sum of 5 cycles each) (fold (ratio)); higher = stronger signal-on switching upon ATP binding; sequences stand for … in TCGTCGGCAGCGTCAGATGTGTATAAGAGACAGTTTTTTTTTTTTTTTTTTTTTTTTT…TC
Details: aptamer strand: ATP DNA aptamer (quencher-CACCTGGGGGAGTATTGCGGAGGAAGG + anchor), 100 nM annealed; ATP concentration: 500 uM; one replicate
How it was run: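 Imaging in selection buffer was followed by imaging after 15 min with 500 uM ATP at 22 °C, for Cy3-labelled switching-strand clusters annealed to 100 nM quencher-labelled ATP aptamer on a modified Illumina MiSeq flow-cell. Five of these buffer/ATP cycles ran, separated by NaOH stripping and re-annealing. The fluorescence ratio per cluster is summed target-cycle over summed buffer-cycle Cy3 intensity, averaged per switch-domain sequence; clusters outside 100-1000 RFU were removed.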
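Further: ATP exposure 15 min at 22 °C before imaging.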

**Q.** With ATGTCCGTT as the sequence, how does the switch fluorescence ratio read?
**A.** 0.938

**Q.** For ATGTCGGGTC, which switch fluorescence ratio is on record?
**A.** 1.01

**Q.** With ATGTCGGTCT as the sequence, how does the switch fluorescence ratio read?
**A.** 0.959

**Q.** For ATGTCGGTTC, which switch fluorescence ratio is on record?
**A.** 0.973

**Q.** For ATGTGAGTGG, which switch fluorescence ratio is on record?
**A.** 0.97

**Q.** With ATGTGATATC as the sequence, how does the switch fluorescence ratio read?
**A.** 0.991

**Q.** Which switch fluorescence ratio does the source give for ATGTGATGAC here?
**A.** 1.05

**Q.** How did the switch fluorescence ratio turn out when ATGTGCACGC was run?
**A.** 0.972

**Q.** For ATGTGCCAGG, which switch fluorescence ratio is on record?
**A.** 1.09

**Q.** ATGTGCGC was tested. Which switch fluorescence ratio did it give?
**A.** 0.962

**Q.** How did the switch fluorescence ratio turn out when ATGTGCGGTT was run?
**A.** 1.03

**Q.** Which switch fluorescence ratio does the source give for ATGTGGAAG here?
**A.** 0.958

**Q.** ATGTGGACCA was tested. Which switch fluorescence ratio did it give?
**A.** 1

**Q.** With ATGTGGAGCT as the sequence, how does the switch fluorescence ratio read?
**A.** 1.04

**Q.** ATGTGGCACC was tested. Which switch fluorescence ratio did it give?
**A.** 1.04

**Q.** For ATGTGGGATG, which switch fluorescence ratio is on record?
**A.** 0.974

**Q.** Which switch fluorescence ratio does the source give for ATGTGGTTCT here?
**A.** 0.994

**Q.** With ATGTGTAATA as the sequence, how does the switch fluorescence ratio read?
**A.** 0.955

**Q.** Which switch fluorescence ratio does the source give for ATGTGTATAC here?
**A.** 1.04

**Q.** How did the switch fluorescence ratio turn out when ATGTGTTCGT was run?
**A.** 1.02

**Q.** ATGTTACAGA was tested. Which switch fluorescence ratio did it give?
**A.** 1.03

**Q.** Which switch fluorescence ratio does the source give for ATGTTAGAGA here?
**A.** 1.01

**Q.** How did the switch fluorescence ratio turn out when ATGTTAGTCA was run?
**A.** 1.01

**Q.** Which switch fluorescence ratio does the source give for ATGTTCAGGG here?
**A.** 1.02

**Q.** How did the switch fluorescence ratio turn out when ATGTTCGCAC was run?
**A.** 1.14

**Q.** Which switch fluorescence ratio does the source give for ATGTTCGGTT here?
**A.** 0.963

**Q.** Which switch fluorescence ratio does the source give for ATGTTCTTG here?
**A.** 0.996

**Q.** ATGTTCTTGG was tested. Which switch fluorescence ratio did it give?
**A.** 1.01

**Q.** ATGTTGCCTG was tested. Which switch fluorescence ratio did it give?
**A.** 1.01

**Q.** With ATGTTGCGG as the sequence, how does the switch fluorescence ratio read?
**A.** 1.02

**Q.** How did the switch fluorescence ratio turn out when ATGTTGTAA was run?
**A.** 0.997

**Q.** For ATGTTGTTTT, which switch fluorescence ratio is on record?
**A.** 0.96

**Q.** Which switch fluorescence ratio does the source give for ATGTTTCGAT here?
**A.** 0.994

**Q.** With ATGTTTCTG as the sequence, how does the switch fluorescence ratio read?
**A.** 1

**Q.** Which switch fluorescence ratio does the source give for ATGTTTGTGA here?
**A.** 1.01

**Q.** For ATGTTTGTTC, which switch fluorescence ratio is on record?
**A.** 0.99

**Q.** ATTAAAATAA was tested. Which switch fluorescence ratio did it give?
**A.** 0.987

**Q.** How did the switch fluorescence ratio turn out when ATTAAAGCTT was run?
**A.** 1

**Q.** How did the switch fluorescence ratio turn out when ATTAACGAGT was run?
**A.** 0.977

**Q.** With ATTAACGTCG as the sequence, how does the switch fluorescence ratio read?
**A.** 1.05

**Q.** How did the switch fluorescence ratio turn out when ATTAACTATC was run?
**A.** 0.937

**Q.** Which switch fluorescence ratio does the source give for ATTAACTATT here?
**A.** 1.03

**Q.** How did the switch fluorescence ratio turn out when ATTAACTTCA was run?
**A.** 1.04

**Q.** ATTAAGACGG was tested. Which switch fluorescence ratio did it give?
**A.** 1.02

**Q.** With ATTAAGAGTC as the sequence, how does the switch fluorescence ratio read?
**A.** 0.97

**Q.** For ATTAAGGCGT, which switch fluorescence ratio is on record?
**A.** 0.997

**Q.** ATTAAGGGAG was tested. Which switch fluorescence ratio did it give?
**A.** 1.02

**Q.** For ATTAAGGTGG, which switch fluorescence ratio is on record?
**A.** 1.01

**Q.** Which switch fluorescence ratio does the source give for ATTAATGATG here?
**A.** 1.02

**Q.** How did the switch fluorescence ratio turn out when ATTAATGCAA was run?
**A.** 1.07

**Q.** How did the switch fluorescence ratio turn out when ATTAATGTT was run?
**A.** 0.996

**Q.** For ATTAATTCGG, which switch fluorescence ratio is on record?
**A.** 1.02

**Q.** ATTACAGCCC was tested. Which switch fluorescence ratio did it give?
**A.** 1.03

**Q.** With ATTACGATT as the sequence, how does the switch fluorescence ratio read?
**A.** 1.04

**Q.** ATTACGCCCG was tested. Which switch fluorescence ratio did it give?
**A.** 1.12

**Q.** How did the switch fluorescence ratio turn out when ATTACGGAGC was run?
**A.** 1.44

**Q.** For ATTACGTGGT, which switch fluorescence ratio is on record?
**A.** 0.977

**Q.** With ATTACGTTGC as the sequence, how does the switch fluorescence ratio read?
**A.** 1.05

**Q.** For ATTACTTCTT, which switch fluorescence ratio is on record?
**A.** 1.04

**Q.** ATTAGATTAA was tested. Which switch fluorescence ratio did it give?
**A.** 0.994

**Q.** With ATTAGCAACG as the sequence, how does the switch fluorescence ratio read?
**A.** 1.01

**Q.** Which switch fluorescence ratio does the source give for ATTAGCATTA here?
**A.** 1.05

**Q.** ATTAGCTTTA was tested. Which switch fluorescence ratio did it give?
**A.** 1.01

**Q.** ATTAGGTGTA was tested. Which switch fluorescence ratio did it give?
**A.** 1.04

**Q.** For ATTAGTTAGT, which switch fluorescence ratio is on record?
**A.** 0.97

**Q.** For ATTATAATTA, which switch fluorescence ratio is on record?
**A.** 1.03

**Q.** With ATTATACAAT as the sequence, how does the switch fluorescence ratio read?
**A.** 1.03

**Q.** For ATTATAGAGA, which switch fluorescence ratio is on record?
**A.** 0.998

**Q.** Which switch fluorescence ratio does the source give for ATTATCCGAG here?
**A.** 1.07

**Q.** Which switch fluorescence ratio does the source give for ATTATCGCAG here?
**A.** 1.03

**Q.** ATTATCTATA was tested. Which switch fluorescence ratio did it give?
**A.** 1.01

**Q.** With ATTATCTCCG as the sequence, how does the switch fluorescence ratio read?
**A.** 1.28

**Q.** How did the switch fluorescence ratio turn out when ATTATGAAGC was run?
**A.** 1.01

**Q.** How did the switch fluorescence ratio turn out when ATTATGAGC was run?
**A.** 1.02

**Q.** For ATTATGAGGG, which switch fluorescence ratio is on record?
**A.** 1.01

**Q.** For ATTATGCCAC, which switch fluorescence ratio is on record?
**A.** 1.06

**Q.** How did the switch fluorescence ratio turn out when ATTATGTCA was run?
**A.** 1.03

**Q.** For ATTATTGTCT, which switch fluorescence ratio is on record?
**A.** 0.949

**Q.** How did the switch fluorescence ratio turn out when ATTATTTCTG was run?
**A.** 0.974

**Q.** ATTATTTGGC was tested. Which switch fluorescence ratio did it give?
**A.** 1.11

**Q.** Which switch fluorescence ratio does the source give for ATTCACTTCC here?
**A.** 1.06

**Q.** For ATTCAGATCC, which switch fluorescence ratio is on record?
**A.** 0.984

**Q.** ATTCAGCGTA was tested. Which switch fluorescence ratio did it give?
**A.** 1.01

**Q.** For ATTCAGTTGT, which switch fluorescence ratio is on record?
**A.** 0.967

**Q.** For ATTCATAAGG, which switch fluorescence ratio is on record?
**A.** 1.01

**Q.** With ATTCATCCAC as the sequence, how does the switch fluorescence ratio read?
**A.** 1.19

**Q.** How did the switch fluorescence ratio turn out when ATTCATGTGA was run?
**A.** 0.981

**Q.** Which switch fluorescence ratio does the source give for ATTCATTCAC here?
**A.** 1.05

**Q.** ATTCCAGCGC was tested. Which switch fluorescence ratio did it give?
**A.** 1.06

**Q.** For ATTCCAGCGT, which switch fluorescence ratio is on record?
**A.** 1.01

**Q.** ATTCCATGT was tested. Which switch fluorescence ratio did it give?
**A.** 1.01

**Q.** Which switch fluorescence ratio does the source give for ATTCCTACGG here?
**A.** 1.36

**Q.** Which switch fluorescence ratio does the source give for ATTCCTGCTA here?
**A.** 1.09

**Q.** How did the switch fluorescence ratio turn out when ATTCGAAGA was run?
**A.** 0.978

**Q.** ATTCGACTGC was tested. Which switch fluorescence ratio did it give?
**A.** 1.03

**Q.** ATTCGCTACC was tested. Which switch fluorescence ratio did it give?
**A.** 1.49

**Q.** With ATTCGGAAAA as the sequence, how does the switch fluorescence ratio read?
**A.** 0.998

**Q.** For ATTCGTAGA, which switch fluorescence ratio is on record?
**A.** 0.93

**Q.** With ATTCGTCTTG as the sequence, how does the switch fluorescence ratio read?
**A.** 1.02

**Q.** For ATTCGTTAT, which switch fluorescence ratio is on record?
**A.** 1.03

**Q.** How did the switch fluorescence ratio turn out when ATTCTATTAT was run?
**A.** 0.981
